Measurements published in PubChem BioAssay AID686978 (National Center for Advancing Translational Sciences (NCATS), 2013).
Values joined by “and” are separate entries in the source; they are usually repeats but may differ in a detail not shown here. Equal values may be shown once. Out of some 420,000 compounds screened, about 64,000 (15%) were called active. Inconclusive means that the source gave no clear call. Such entries were picked first, then a sample of the others. Calls follow the shape of the dose curve; as a rule, active = well fitted inhibition curve with a large enough effect; inconclusive = small, poorly fitted or top-dose-only effect; inactive = flat fitted curve, though single readings scatter. A potency beside an inconclusive call is a rough fit, not a confirmed value. A structure can be active in one record and inactive in another.

assay: qHTS for Inhibitors of human tyrosyl-DNA phosphodiesterase 1 (TDP1): qHTS in cells in absence of CPT; details: DT40 Tdp1-/- hTDP1 cells, no CPT, ATP luminescence, 48 h; series mostly up to 46.2 µM; also: nearly all actives have a fitted effect of over 55% in size
Procedure, shortened: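 Chicken DT40 Tdp1-/- cells stably complemented with human TDP1 were seeded at 400 cells/well with DMSO in place of 20 nM camptothecin. After compound pinning, cells grew at least 48 hr at 37 °C; viability read by CellTiter-Glo luminescence.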
Potency is read from the fitted curve at half-maximal effect; tags tell the direction and shape of the fitted curve.

SMILES | Potency
C/C(Cl)=C/Cn1c(N2CCCC2)nc2c1c(=O)n(C)c(=O)n2C | inconclusive: 16.4 µM [inhibitor, partial curve]
COc1ccc(-c2nc(NCCCN(C)C)c3ccccc3n2)cc1 | inconclusive: 23.1 µM [inhibitor, partial curve]
CC1CCCN(CCCNC(=O)c2cc3c(Cl)nc4ccccc4c3s2)C1 (stereo unspecified) | active: 7.31 µM
CC(CC(=O)N1CCN(c2ccccc2)CC1)S(=O)(=O)c1ccc2c(c1)NC(=O)CO2 (stereo unspecified) | inconclusive: 29.1 µM [inhibitor, single point]
O=S(=O)(Nc1ccc(Br)cc1)c1cccc(NC(=S)NCCN2CCOCC2)c1 | inconclusive: 18.4 µM [inhibitor, single point]
COC(=O)C[N+](C)(C)C/C=C\c1ccccc1 | inactive
CCCCS(=O)(=O)Nc1ccc(Cc2ccncc2)cc1 | inactive
c1ccc(-c2nn3c(Cn4cnc5ccccc54)nnc3s2)cc1 | inconclusive: 20.6 µM [inhibitor, single point]
CCc1ccccc1N(C)C(=O)c1sc2nc3n(c(=O)c2c1C)CCCCC3 | inconclusive: 29.1 µM [inhibitor, single point]
COc1ccc(/C=N\NC(=O)c2ccccc2Br)cc1COc1ccccc1 | inconclusive: 23.1 µM [inhibitor, single point]
CC(=O)c1c(C)[nH]c(C(=O)Nc2ccc(F)c(F)c2F)c1C | inactive
COc1ccccc1C(C#N)c1cccc(Cl)n1 (stereo unspecified) | inactive
COc1ccccc1CNC(=O)C1CCN(S(=O)(=O)c2cn(C)cn2)CC1 | inconclusive: 20.6 µM [inhibitor, single point]
O=C(Nc1ccc2nc(-c3ccco3)[nH]c2c1)c1cccs1 | inconclusive: 11.6 µM [inhibitor, partial curve]
CCc1nc2c(OCc3ccc(C#N)cc3)cccn2c1N(C)C(=O)c1ccco1 | inactive
CCN(CC)c1ccc(C2C(C(=O)OCCOC(C)C)=C(C)NC3=C2C(=O)CCC3)cc1 (stereo unspecified) | inconclusive: 29.1 µM [inhibitor, partial curve, poor fit]
COc1ccccc1N1CCN(C(=O)C(C)N(c2ccc(C)cc2)S(C)(=O)=O)CC1 (stereo unspecified) | inconclusive: 29.1 µM [inhibitor, single point]
N/C(=N\OC(=O)CCCOc1ccccc1)c1ccc(Br)cc1 | inconclusive: 1.64 µM [inhibitor, full curve, poor fit]
Cc1ccc(C(=O)N2CCCN(c3nc4cc5c(cc4cc3C#N)OCO5)CC2)cc1 | active: 14.6 µM
COc1cccc(CNC(=O)CN2C(=O)CCSc3ccc(S(=O)(=O)N4CCCC4)cc32)c1 | inactive
Cc1ccc(-c2ccc(CCC(=O)O)n2-c2cccc(C)c2C)cc1 | inactive
CCOc1ccc(OCC)c(NC(=O)CN(c2ccc(OC)cc2)S(=O)(=O)c2c(C)noc2C)c1 | inconclusive: 29.1 µM [inhibitor, single point]
Cn1cc(C(=O)NCc2ccc(F)cc2)cn1 | inactive
O=C(NCc1cccc(OC(F)(F)F)c1)c1cccc2c1C(=O)c1ccc(-c3ccc(F)cc3OCc3ccccc3)cc1S2(=O)=O | inconclusive: 8.2 µM [inhibitor, partial curve]

SMILES | Potency
CCn1c(CC(=O)Nc2ccccc2F)nnc1SCC(=O)NC1CCCC1 | inactive
O=C1c2ccccc2C(c2nnnn2-c2ccc3c(c2)OCCO3)N1CCc1ccccc1F (stereo unspecified) | inconclusive: 20.6 µM [inhibitor, partial curve]
CN1CCCN(C2C3CC4CC(C3)CC2C4)CC1 (stereo unspecified) | inactive
C=C1C[C@H](O)[C@@H]2[C@H](OC(=O)[C@H]2C)[C@H]2[C@H](C)[C@@H](O)C[C@@H]12 | inactive
Nc1nc[nH]c(=O)c1N=Cc1ccccc1 | inactive
Cc1csc(NC(=O)c2cncc(Br)c2)n1 | inconclusive: 29.1 µM [inhibitor, single point]
COc1ccc(NC(=O)c2c(C)oc3ccc(O)c(CN4CCCCCC4)c23)cc1 | active: 23.1 µM
COc1ccc(CNCc2cccc(Oc3ccccc3)c2)cc1 | inconclusive: 29.1 µM [inhibitor, single point]
S=C1NC2(CCCCC2)N=C1c1ccccc1 | inconclusive: 18.4 µM [inhibitor, single point]
Cc1cc2c(c(C)c1Br)C(c1ccc3c(c1)OCO3)CC(=O)O2 (stereo unspecified) | inactive
CCOc1ccc(Br)cc1S(=O)(=O)Nc1cccc(-c2ccc(OC)nn2)c1 | inactive
COc1ccc(Br)c(C(=O)OCC(=O)NC(=O)NC2CCCC2)c1 | inconclusive: 29.1 µM [inhibitor, single point]
COC1=C(N)C(=O)c2nc(-c3nc(C(=O)O)c(C)c(-c4ccc(OC)c(OC)c4O)c3N)ccc2C1=O | active: 0.103 µM
Cn1cc(S(=O)(=O)N2CCOCC2)cc1C(=O)NCc1ccccc1Cl | inactive
Cc1cc(CN2CCN(CC(=O)Nc3cc(C(F)(F)F)ccc3-n3cncn3)CC2)no1 | inconclusive: 18.4 µM [inhibitor, single point]
O=C(CCCOc1ccc(Cl)cc1Cl)NCCc1nnc2ccccn12 | inactive
Cc1ccc(N2CCN(S(=O)(=O)c3ccc(-n4cnnn4)cc3)CC2)c(C)c1 | inactive
CCCCCCCCN1C(=O)[C@H](CC(=O)NCc2cccc(C(F)(F)F)c2)C[C@@]2(C(=O)OCC)CCC=C12 | active: 13 µM
CCOc1ccc(S(=O)(=O)n2ccc(C)n2)c2ccccc12 | inconclusive: 29.1 µM [inhibitor, single point]
O=C(O)c1ccc2cccc(O)c2n1 | inactive
Cc1ccnc(NC(c2ccsc2)c2ccc3ccc(C)nc3c2O)c1 (stereo unspecified) | inconclusive: 20.6 µM [inhibitor, single point]
CC1CCN(S(=O)(=O)c2ccc(NC(=O)c3ccco3)cc2)CC1 | inconclusive: 16.4 µM [inhibitor, partial curve, poor fit]
C[C@@H](NC(=O)c1nc[nH]c1C(=O)NCc1ccccc1)c1ccccc1 | inconclusive: 29.1 µM [inhibitor, single point]
O=c1[nH]c(=O)n([C@H]2C[C@H](O)[C@@H](CO)O2)cc1Br | inconclusive: 11.9 µM [inhibitor, partial curve] and inconclusive: 11.9 µM [inhibitor, partial curve, poor fit] and inconclusive: 2.91 µM [inhibitor, partial curve]

SMILES | Potency
CN1C(=O)C2(NCCc3c2[nH]c2ccccc32)c2ccccc21 (stereo unspecified) | inconclusive: 6.51 µM [inhibitor, single point]
O=C(CCC(=O)OCc1ccc(Cl)cc1)Nc1ccccc1 | inactive
CC1CCN(C(=O)COC(=O)c2cc([N+](=O)[O-])ccc2N2CCOCC2)CC1 | inconclusive: 29.1 µM [inhibitor, single point]
CSc1ccc(-c2cc(=O)c3ccccc3o2)cc1 | inconclusive: 23.1 µM [inhibitor, single point]
Cn1c(=O)[nH]c(=O)c2cc(C(=O)c3cc(F)ccc3O)cnc21 | inconclusive: 20.6 µM [inhibitor, single point]
Cc1ccc(Cl)cc1N1CCN(C(=O)c2ccc3c(c2)N(Cc2ccccc2)CCS3)CC1 | active: 23.1 µM
CCn1nnc2cc(C(=O)Nc3ccc(OC)cc3)ccc21 | inactive
Cc1nc(SCC(=O)Nc2nc3ccccc3s2)c(C#N)c(C)c1C | inconclusive: 29.1 µM [inhibitor, single point]
COc1ccc(-n2c(=O)c3c4c(sc3n(Cc3ccc(C(C)(C)C)cc3)c2=O)CCC4)c(OC)c1 | inconclusive: 20.6 µM [inhibitor, single point]
CCOC(=O)Nc1ccc2c(c1)N(C(=O)N(CC)CC)c1ccccc1CC2 | inconclusive: 25.9 µM [inhibitor, single point]
CCOC(=O)c1cccc(NC(=O)CCn2nnc3ccccc32)c1 | inactive
COc1ccc(-c2cc(C(=O)NCc3ccco3)c3ccccc3n2)c(OC)c1 | inconclusive: 23.1 µM [inhibitor, single point]
COC(=O)c1cccc(NC(=O)C2C3CCC(C3)C2C(=O)O)c1 (stereo unspecified) | inactive
OCCN1CCN(c2cc(-c3ccc4ccccc4c3)nc3ccnn23)CC1 | inconclusive: 23.1 µM [inhibitor, single point]
CC1(C(=O)NS(=O)(=O)Cc2cccc(Cl)c2)CCN1C(=O)C1(c2ccc(Cl)cc2)CC1 (stereo unspecified) | inconclusive: 18.4 µM [inhibitor, single point]
CCOc1cccc(C(=O)NC(=S)Nc2cccnc2)c1 | inconclusive: 20.6 µM [inhibitor, single point]
Cc1cccc(C(=O)OC2CCOC2=O)c1O (stereo unspecified) | inactive
O=C(Nc1ccc2ccccc2c1)C(c1ccccc1)C1CCCC1 (stereo unspecified) | inconclusive: 23.1 µM [inhibitor, single point]
Cc1cn2c(=O)cc(COC(=O)c3ccc(NC(=O)C(C)Oc4ccccc4)cc3)nc2s1 (stereo unspecified) | inactive
O=C(CC1Sc2ccccc2NC1=O)OCc1cc(=O)oc2cc(O)ccc12 (stereo unspecified) | inconclusive: 16.4 µM [inhibitor, partial curve, poor fit]
O=C(NC(=S)Nc1ccc(Cc2ccncc2)cc1)c1ccccc1F | inconclusive: 23.1 µM [inhibitor, partial curve]
COc1cc(NC(C)CCCN)c2ncccc2c1 (stereo unspecified) | active: 7.18 µM
CCOc1ccccc1C(=O)NC(C(=O)OCC(=O)Nc1nnc(-c2ccccc2)o1)C(C)C (stereo unspecified) | inactive
